Measured values as given in patent US12187772 (Regeneron, dated 2025).
Each block holds one binder with its values, some of them ahead of it.

Biological target: T1, IL10 receptor (IL10 receptor subunit alpha IL10Ra and beta subunit IL10Rb) on Ramos/STAT3-Luc and … (UniProt Q13651 22-578; Q08334 20-325, limits assumed)
T1 sequence (looked up) 1: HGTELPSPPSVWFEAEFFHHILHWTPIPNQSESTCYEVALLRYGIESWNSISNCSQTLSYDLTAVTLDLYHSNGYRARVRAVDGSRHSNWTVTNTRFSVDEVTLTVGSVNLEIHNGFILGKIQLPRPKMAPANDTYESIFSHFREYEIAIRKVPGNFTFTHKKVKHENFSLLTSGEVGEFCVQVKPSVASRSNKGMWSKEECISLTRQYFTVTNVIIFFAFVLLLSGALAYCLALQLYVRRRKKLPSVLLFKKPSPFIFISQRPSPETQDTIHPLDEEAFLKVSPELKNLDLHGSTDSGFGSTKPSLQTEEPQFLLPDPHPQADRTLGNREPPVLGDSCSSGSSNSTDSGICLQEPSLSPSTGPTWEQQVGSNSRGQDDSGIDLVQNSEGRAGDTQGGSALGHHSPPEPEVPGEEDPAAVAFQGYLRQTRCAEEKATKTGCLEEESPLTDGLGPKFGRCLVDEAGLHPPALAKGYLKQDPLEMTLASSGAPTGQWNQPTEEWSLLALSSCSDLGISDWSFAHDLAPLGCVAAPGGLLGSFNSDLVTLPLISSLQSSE
T1 sequence (looked up) 2: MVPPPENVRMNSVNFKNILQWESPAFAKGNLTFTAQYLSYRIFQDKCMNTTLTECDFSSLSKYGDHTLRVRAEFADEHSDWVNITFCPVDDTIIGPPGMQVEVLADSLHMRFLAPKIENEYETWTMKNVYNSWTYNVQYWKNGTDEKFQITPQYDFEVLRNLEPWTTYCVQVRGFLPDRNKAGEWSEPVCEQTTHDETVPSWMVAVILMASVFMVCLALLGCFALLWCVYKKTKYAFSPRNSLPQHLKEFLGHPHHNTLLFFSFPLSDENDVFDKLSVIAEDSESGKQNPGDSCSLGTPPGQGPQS
Assay: cell-based or functional assay

EC50 of luciferase activity, Ramos/Stat3-Luc reporter cells: 138 pM | EC50 of luciferase activity, TF-1/Stat3-Luc reporter cells: 503 pM | Fold Induction of luciferase activity, Ramos/Stat3-Luc reporter cells: 2.09 fold | Fold Induction of luciferase activity, TF-1/Stat3-Luc reporter cells: 2.16 fold
B1: IL10M10 (hIL10-Fc; Fc is an IgG1 with D265A, N297A mutations) (Fc fusion)
chain: SPGQGTQSENSCTHFPGNLPNMLRDLRDAFSRVKTFFQMKDQLDNLLLKESLLEDFKGYLGCQALSEMIQFYLEEVMPQAENQDPDIKAHVNSLGENLKTLRLRLRRCHRFLPCENKSKAVEQVKNAFNKLQEKGIYKAMSEFDIFINYIEAYMTMKIRN[gap - human IgG1 Fc with D265A N297A (EU numbers)]

EC50 of luciferase activity, Ramos/Stat3-Luc reporter cells: 145 pM | EC50 of luciferase activity, TF-1/Stat3-Luc reporter cells: 700 pM | Fold Induction of luciferase activity, Ramos/Stat3-Luc reporter cells: 2.77 fold | Fold Induction of luciferase activity, TF-1/Stat3-Luc reporter cells: 2.55 fold
B2: IL10M9 (hIL10-1XG4S-Fc; Fc is an IgG1 with D265A, N297A mutations) (Fc fusion)
chain: SPGQGTQSENSCTHFPGNLPNMLRDLRDAFSRVKTFFQMKDQLDNLLLKESLLEDFKGYLGCQALSEMIQFYLEEVMPQAENQDPDIKAHVNSLGENLKTLRLRLRRCHRFLPCENKSKAVEQVKNAFNKLQEKGIYKAMSEFDIFINYIEAYMTMKIRNGGGGS[gap - human IgG1 Fc with D265A N297A (EU numbers)]
